{"source": "PubChem BioAssay AID651804", "about": "(National Center for Advancing Translational Sciences (NCATS), 2012)", "note": "The whole screen tested about 1,200 compounds, of which about 20 (2%) were called active. The inconclusive results got no clear call from the source; some entries with a clear call stand among them for comparison. Calls come from the whole dose curve; as a rule, active = well fitted inhibition curve with a large enough effect; inconclusive = small, poorly fitted or top-dose-only effect; inactive = no such curve, though single readings can be large or run the other way. Potencies of inconclusive entries are left out as doubtful fits. Potency is the fitted concentration of half-maximal effect; tags give direction and shape of the fitted curve.", "data": [{"target": "Transcriptional regulator ERG (Homo sapiens) (UniProt P11308)", "sequence (P11308 whole entry, looked up, the tested form may be a part)": "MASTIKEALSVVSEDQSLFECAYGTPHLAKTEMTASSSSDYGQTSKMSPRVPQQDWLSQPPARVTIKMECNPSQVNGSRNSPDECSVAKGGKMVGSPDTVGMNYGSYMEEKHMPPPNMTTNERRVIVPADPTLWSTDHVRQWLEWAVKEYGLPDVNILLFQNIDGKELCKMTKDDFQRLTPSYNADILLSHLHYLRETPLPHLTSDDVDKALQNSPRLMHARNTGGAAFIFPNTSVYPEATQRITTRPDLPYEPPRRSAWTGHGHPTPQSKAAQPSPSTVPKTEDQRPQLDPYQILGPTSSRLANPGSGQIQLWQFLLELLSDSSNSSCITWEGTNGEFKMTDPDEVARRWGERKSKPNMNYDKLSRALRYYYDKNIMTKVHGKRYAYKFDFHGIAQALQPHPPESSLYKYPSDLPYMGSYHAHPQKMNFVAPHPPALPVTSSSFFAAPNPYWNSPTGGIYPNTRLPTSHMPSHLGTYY", "experiment": "qHTS for Small Molecule Inhibitors of the ERG Ets/DNA interaction: HTRF assay against cherry picks", "conditions": "His-ERG Ets domain with biotin-DNA; activity change, negative = inhibition: at 154 µM (top of the series)", "in_short": "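Compounds were incubated 10 min at RT with ERG Ets domain and biotinylated DNA (each added as 200 nM solution) in pH 7.5 Tris/KCl/EDTA/DTT buffer. Binding was read as FRET (ex 320, em 615 and 665 nm) between anti-His donor and streptavidin acceptor.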", "values": [{"molecule": "COc1ccc(OCCCC(=O)Nc2cccc(C(C)=O)c2)cc1", "Potency": "inactive"}, {"molecule": "Cc1ccc(C(=O)NC(=S)Nc2ccc(NC(=O)c3cccc(Cl)c3)cc2)cc1", "Potency": "inconclusive [inhibitor, partial curve, poor fit]"}, {"molecule": "C=CCC[C@H](Cc1ccc(F)cc1)C(=O)OC[C@@H](Cc1c[nH]c2ccccc12)NC(=O)[C@H](CC=C)CC(=O)N(CCO)Cc1ccccc1", "Potency": "inactive"}, {"molecule": "CC(C)(CNC(=O)CC1C(=O)NCCN1Cc1cccc(F)c1)N1CCOCC1", "note": "(configuration not stated)", "Potency": "inactive"}, {"molecule": "Cc1cc(C)nc(N2CCCC(C(=O)Nc3ccc(F)cc3)C2)n1", "note": "(configuration not stated)", "Potency": "inactive"}, {"molecule": "O=C(O)c1cc2c(s1)-c1ccccc1CC2", "Potency": "inconclusive [inhibitor, single point]"}, {"molecule": "O=C(CN1C(=O)CS/C1=C\\c1nc(-c2ccc(Cl)cc2)cs1)Nc1cccnc1Cl", "Potency": "inconclusive [inhibitor, single point]"}, {"molecule": "O=C1CCCC(O)=C1N=Nc1ccc(S(=O)(=O)N2CCOCC2)cc1", "Potency": "inconclusive [inhibitor, partial curve]"}, {"molecule": "CCNC(=S)N(CCO)Cc1cc2cc3c(cc2[nH]c1=O)OCO3", "Potency": "inconclusive [inhibitor, full curve, poor fit]"}, {"molecule": "CCOc1cc(/C=C2\\CCCc3c2nc2ccccc2c3C(=O)O)ccc1OC", "Potency": "inconclusive [inhibitor, partial curve]"}, {"molecule": "Cc1cc(C(=O)N/N=C/c2c(C)nn(-c3ccccc3)c2Cl)n[nH]1", "Potency": "inconclusive [inhibitor, single point]"}, {"molecule": "CC(=O)N1CCN(c2ccc(Nc3ncnc4c3oc3ccccc34)cc2)CC1", "Potency": "inconclusive [inhibitor, partial curve, poor fit]"}, {"molecule": "COc1ccc(NC(=O)CSc2ccc(-c3ccco3)nn2)cc1OC", "activity change, negative = inhibition": "inconclusive: -38% [inhibitor]"}, {"molecule": "CNc1nc2ccccc2n(C)c1=O", "Potency": "inconclusive [inhibitor, partial curve, poor fit]"}, {"molecule": "Cc1noc(C)c1S(=O)(=O)N(CC(=O)NCc1ccc(F)cc1)c1ccc(C(C)C)cc1", "Potency": "inactive"}, {"molecule": "N#C/C(=C\\c1ccc(-c2ccccc2[N+](=O)[O-])o1)C(N)=O", "Potency": "inconclusive [inhibitor, full curve, poor fit]"}, {"molecule": "CCCOc1ccc(C2c3c(-c4ccccc4O)n[nH]c3C(=O)N2CCc2ccccc2)cc1OCC", "note": "(configuration not stated)", "Potency": "inconclusive [inhibitor, partial curve, poor fit]"}, {"molecule": "COc1ccc(CN2CCC(C(=O)N3CCCC(C)C3)CC2)cc1OC", "note": "(configuration not stated)", "Potency": "inconclusive [inhibitor, partial curve, poor fit]"}, {"molecule": "Cc1ccc(Cn2c(SCC(=O)N/N=C/c3ccccc3OCC(=O)O)nc3ccccc32)cc1", "Potency": "inconclusive [inhibitor, partial curve, poor fit]"}, {"molecule": "COC(=O)c1sccc1NC(=O)/C=C/C(=O)O", "Potency": "inconclusive [inhibitor, partial curve, poor fit]"}, {"molecule": "c1ccc([C@H]2CN3C(=N2)Sc2ccccc23)cc1", "Potency": "inconclusive [inhibitor, single point]"}, {"molecule": "O=C(CSC1=NCCS1)NC(NC(=O)CSC1=NCCS1)c1ccccc1", "Potency": "inactive"}, {"molecule": "Cc1ccsc1/C=N/NC(=O)CO", "Potency": "inconclusive [inhibitor, single point]"}, {"molecule": "Cc1cc2nc3c(=O)[nH]c(=S)[nH]c3nc2cc1NC(=O)C(F)(F)F", "Potency": "inconclusive [inhibitor, full curve, poor fit]"}, {"molecule": "COc1cccc(C(=O)OCC(=O)Nc2ccc(N3CCOCC3)cc2)c1", "Potency": "inconclusive [inhibitor, full curve, poor fit]"}, {"molecule": "COC(=O)Cc1ccc(NC(=S)NC(C)(C)C)cc1", "Potency": "inactive"}, {"molecule": "CC(Oc1ccc(F)cc1)C(=O)Nc1ccc(S(=O)(=O)NC2=NCCCCC2)cc1", "note": "(configuration not stated)", "Potency": "inactive"}, {"molecule": "COc1ccc(S(=O)(=O)NNC(=S)NCCc2ccccc2)c(OC)c1", "Potency": "inactive"}, {"molecule": "c1cnc(N2CCN(Cc3ccc4c(c3)OCO4)CC2)nc1", "Potency": "inconclusive [inhibitor, partial curve, poor fit]"}, {"molecule": "Nc1cccc(N2C(=O)c3cccc4c(N)ccc(c34)C2=O)c1", "Potency": "active: 39.8 µM"}, {"molecule": "Cn1nc([N+](=O)[O-])c(C(C#N)c2ccccn2)c(Cl)c1=O", "note": "(configuration not stated)", "Potency": "inconclusive [inhibitor, partial curve]"}, {"molecule": "COc1ccc(OC)c(/C=N/NC(=O)c2ccc[n+](CC(=O)c3ccccc3)c2)c1", "Potency": "inconclusive [inhibitor, partial curve]"}, {"molecule": "COc1ccc(/C=N/n2cnnc2)cc1Br", "Potency": "inconclusive [inhibitor, partial curve, poor fit]"}, {"molecule": "Oc1ccc(N=Cc2ccc(-c3cccs3)s2)cc1", "Potency": "inconclusive [inhibitor, partial curve, poor fit]"}, {"molecule": "Nc1ccccc1S(N)(=O)=O", "Potency": "inactive"}, {"molecule": "COc1ccc2c(CCNC(=O)/C=C/c3ccc(OC)c(OC)c3)c[nH]c2c1", "Potency": "inconclusive [inhibitor, partial curve, poor fit]"}, {"molecule": "COc1cc(-c2ccc(Nc3ccccc3C(=O)O)c(OC)c2)ccc1Nc1ccccc1C(=O)O", "Potency": "inconclusive [inhibitor, partial curve, poor fit]"}, {"molecule": "Cn1c(SCc2ccc([N+](=O)[O-])cc2)nnc1-c1cccnc1", "Potency": "inconclusive [inhibitor, partial curve, poor fit]"}, {"molecule": "O=C(Nc1nc(-c2ccc(F)c(F)c2)cs1)c1cc([N+](=O)[O-])ccc1N1CCOCC1", "Potency": "inconclusive [inhibitor, full curve, poor fit]"}, {"molecule": "CCN(CC)CCCNC(=O)c1cc(Nc2ccc(OC)cc2OC)nc2ccccc12", "Potency": "inconclusive [inhibitor, partial curve, poor fit]"}, {"molecule": "CC(=O)Nc1sc2c(c1-c1nc3ccccc3s1)CCN(C(C)C)C2", "Potency": "active: 3.55 µM"}, {"molecule": "Cc1ccc(C(=O)Nc2nnc(COc3ccccc3)s2)cc1", "Potency": "inconclusive [inhibitor, partial curve, poor fit]"}, {"molecule": "COc1ncnc2c1N=C1CC(C)(C)CC(N)=C1S2", "Potency": "inconclusive [inhibitor, full curve]"}, {"molecule": "Cc1c(NS(=O)(=O)c2ccc(NCC3CCCO3)c([N+](=O)[O-])c2)c(=O)n(-c2ccccc2)n1C", "note": "(configuration not stated)", "Potency": "inconclusive [inhibitor, partial curve, poor fit]"}, {"molecule": "CN(C(=O)CSc1nnc(NC(=O)Nc2ccccc2)s1)c1ccccc1", "Potency": "inconclusive [inhibitor, partial curve, poor fit]"}, {"molecule": "O=C(O)c1cc(O)c2c(c1)[C@H]([C@H]1c3cc(C(=O)O)cc(O)c3C(=O)c3c(O[C@@H]4O[C@H](CO)[C@@H](O)[C@H](O)[C@H]4O)cccc31)c1cccc(OC3O[C@H](CO)[C@@H](O)[C@H](O)[C@H]3O)c1C2=O", "note": "(some centres not stated)", "Potency": "inconclusive [inhibitor, full curve, poor fit]"}, {"molecule": "CCOC(=O)c1cnc2ccc(OC)cc2c1Nc1ccc(N2CCN(C)CC2)cc1", "Potency": "inconclusive [inhibitor, full curve]"}, {"molecule": "COc1cc(S(C)=O)ccc1-c1nc2ncccc2[nH]1", "note": "(configuration not stated)", "Potency": "inconclusive [inhibitor, partial curve, poor fit]"}, {"molecule": "COC(=O)N/N=C/c1cccs1", "Potency": "inconclusive [inhibitor, partial curve, poor fit]"}, {"molecule": "O=C(NC1CCSc2ccccc21)c1cc([N+](=O)[O-])ccc1N1CCOCC1", "note": "(configuration not stated)", "Potency": "inconclusive [inhibitor, partial curve]"}, {"molecule": "COC(=O)c1ccc(COc2ccccc2[N+](=O)[O-])o1", "Potency": "inconclusive [inhibitor, partial curve, poor fit]"}, {"molecule": "N#C/C(=C/c1ccc(N2CCCCC2)o1)C(=O)NCCc1c[nH]c2ccccc12", "Potency": "inconclusive [inhibitor, partial curve]"}, {"molecule": "Cc1cc(C)c2c(N)c(C(=O)c3ccc(Cl)cc3)sc2n1", "Potency": "inconclusive [inhibitor, partial curve, poor fit]"}, {"molecule": "O=S(=O)(NC1CCCCC1)c1ccc(Br)s1", "Potency": "inconclusive [inhibitor, partial curve]"}, {"molecule": "COc1cc([N+](=O)[O-])cc2sc(NC(=O)c3c(F)cccc3F)nc12", "Potency": "inconclusive [inhibitor, partial curve, poor fit]"}, {"molecule": "Cc1ncc([N+](=O)[O-])n1CC(=O)N/N=C/c1ccc(F)cc1", "Potency": "inconclusive [inhibitor, partial curve, poor fit]"}, {"molecule": "CCOc1ccccc1CNc1ccc(O)cc1", "Potency": "inconclusive [inhibitor, partial curve, poor fit]"}, {"molecule": "COc1cc(/C=N/N2C(=O)C3C4C=CC(CC4)C3C2=O)ccc1O", "note": "(configuration not stated)", "Potency": "inconclusive [inhibitor, single point]"}, {"molecule": "CN(C)C(=O)c1ccc(NC(=O)COc2ccc([N+](=O)[O-])cc2)cc1", "Potency": "inconclusive [inhibitor, partial curve, poor fit]"}, {"molecule": "CCc1nn2c(=O)cc(CSCC(=O)Nc3ccccc3F)nc2s1", "Potency": "inactive"}, {"molecule": "CCCCN(CC)CCCNC(=S)Nc1ccc2nc(N3CCN(C)CC3)cc(C)c2c1", "Potency": "inconclusive [inhibitor, full curve, poor fit]"}, {"molecule": "Cc1noc(C)c1CSCC(=O)Nc1cc(S(=O)(=O)N2CCOCC2)ccc1OC(C)C", "Potency": "inconclusive [inhibitor, single point]"}]}]}
